The full ranking holds about 33,000 sequences; the median of “E-score (-0.5 to 0.5)” is about -0.035, and the highest 2% start at about 0.35. The list shows a part of the results.
These sequences were tested against T1, Pdr3 (UniProt P33200) (assay: PBM E-score (8-mer binding enrichment) (E-score (-0.5 to 0.5)); higher = stronger / more preferred TF binding; most listed sequences are background and not binding sites). Conditions: protein concentration: 200 nM; construct: GST-full length.
T1 sequence: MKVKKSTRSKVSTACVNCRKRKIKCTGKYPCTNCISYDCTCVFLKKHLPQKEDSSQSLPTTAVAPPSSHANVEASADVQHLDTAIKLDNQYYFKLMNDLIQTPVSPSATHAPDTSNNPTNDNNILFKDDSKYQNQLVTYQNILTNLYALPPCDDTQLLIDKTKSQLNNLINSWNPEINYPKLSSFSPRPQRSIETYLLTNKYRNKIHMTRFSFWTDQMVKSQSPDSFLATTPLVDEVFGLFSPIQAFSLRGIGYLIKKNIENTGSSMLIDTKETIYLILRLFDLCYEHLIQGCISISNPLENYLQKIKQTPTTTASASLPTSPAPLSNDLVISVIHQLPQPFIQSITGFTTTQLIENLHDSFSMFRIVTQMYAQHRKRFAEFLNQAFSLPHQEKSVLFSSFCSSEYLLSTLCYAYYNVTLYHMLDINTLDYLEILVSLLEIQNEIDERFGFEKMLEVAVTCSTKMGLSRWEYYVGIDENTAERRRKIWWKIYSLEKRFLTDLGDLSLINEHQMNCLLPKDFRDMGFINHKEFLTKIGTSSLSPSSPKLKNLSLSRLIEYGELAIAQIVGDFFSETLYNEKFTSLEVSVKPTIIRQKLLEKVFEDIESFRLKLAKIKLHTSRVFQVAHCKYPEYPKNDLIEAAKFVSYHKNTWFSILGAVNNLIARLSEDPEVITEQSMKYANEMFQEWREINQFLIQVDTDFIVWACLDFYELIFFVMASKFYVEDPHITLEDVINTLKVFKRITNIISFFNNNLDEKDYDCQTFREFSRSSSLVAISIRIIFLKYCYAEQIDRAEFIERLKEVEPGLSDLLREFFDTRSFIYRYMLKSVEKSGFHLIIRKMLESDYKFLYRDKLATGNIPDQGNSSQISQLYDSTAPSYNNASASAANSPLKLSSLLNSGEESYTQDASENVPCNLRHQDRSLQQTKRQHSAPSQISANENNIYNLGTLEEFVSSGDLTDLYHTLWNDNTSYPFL
In short: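 Using PURExpress in vitro transcription/translation, GST-tagged yeast transcription factors were made in full-length or DNA-binding-domain form. These were applied at about 100-200 nM to double-stranded universal all-10-mer Agilent arrays, and bound protein was detected with fluorescent anti-GST. Scans were normalised with masliner before the Universal PBM Analysis Suite assigned E-scores to ungapped eight-base words pooled with their reverse complements.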

| Sequence | PBM E-score |
| --- | --- |
| AAACCGTA | -0.139 |
| AATCATCC | 0.102 |
| ATTCGCTA | -0.14 |
| AGGGCGCC | 0.218 |
| CATACGGC | 0.143 |
| GATATAGA | 0.114 |
| ACCAGTAC | -0.0471 |
| ACTAGGCT | -0.165 |
| CACGCACC | -0.072 |
| AGGCTAGA | -0.222 |
| CTGTCTGC | -0.0975 |
| CCTTCTAG | -0.328 |
| CTCAACCA | 0.0107 |
| CGACCCCA | 0.0751 |
| ACGGTTGG | -0.105 |
| AGGTCACT | -0.241 |
| ACGGTAGG | -0.0864 |
| AGCGAACC | -0.101 |
| CTGGGTAC | -0.0838 |
| AGTGGAAC | -0.036 |
| CAGGCTTA | -0.0395 |
| TCCGTAGA | 0.27 |
| TAAACCTA | -0.0653 |
| CTGGGGGA | -0.151 |
| CAATGGGG | -0.0766 |

| Sequence | PBM E-score |
| --- | --- |
| CATAGTTC | 0.0368 |
| CGAACACC | 0.0926 |
| AGGAGGAC | -0.331 |
| CCGCTCTA | 0.0682 |
| ATTGGGCC | 0.113 |
| CCCAGCGG | 0.0332 |
| CGGCATTA | 0.357 |
| GCATGGCC | 0.00825 |
| GCCTTCCC | -0.1 |
| TCGTACGA | -0.293 |
| ATATAATC | -0.102 |
| AACCACGG | 0.214 |
| ACTAAGTC | -0.179 |
| CCCGGCCC | 0.247 |
| TATAAAGA | -0.141 |
| ACTATCGC | -0.083 |
| CTTCTTAC | 0.011 |
| AAAGCTGT | -0.0166 |
| GCCAATAA | 0.0393 |
| CAGCCCAC | -0.16 |
| ACTCTCGA | -0.112 |
| AGCTAGGG | -0.0664 |
| ACAGTCCG | 0.109 |
| CGTATTAA | -0.0323 |
| ACCCTATG | -0.121 |

| Sequence | PBM E-score |
| --- | --- |
| GCGGGGCC | 0.234 |
| CAGGCTCC | 0.0129 |
| AACAAAAT | -0.0255 |
| AATGAACG | -0.121 |
| AATACGAG | -0.0983 |
| AACCTACC | 0.0283 |
| AACCATCC | 0.162 |
| CTTTTCGA | -0.119 |
| GTATCGAA | -0.0487 |
| TATTCGCA | -0.0986 |
| CGAACAAA | 0.253 |
| CCATATGA | -0.192 |
| ATAGAGGC | -0.211 |
| ATTCAGGA | -0.065 |
| CTTCACGA | -0.302 |
| AGTATCGC | -0.0155 |
| AAAGAACT | -0.0244 |
| GCATGGTA | 0.0348 |
| ATTGTTCG | 0.194 |
| GCACGCCA | -0.115 |
| CAACCGAG | -0.00908 |
| GCTCGAAA | 0.0413 |
| GCGGCGCC | 0.353 |
| TCTCTAAA | -0.0289 |
| GACCTCAA | -0.0717 |

| Sequence | PBM E-score |
| --- | --- |
| CAGCGAAG | -0.211 |
| CCCACCGC | 0.114 |
| ATCTCCTG | 0.0507 |
| CTGGACAA | -0.138 |
| CAACCCAG | -0.0889 |
| ACCACCGA | -0.0441 |
| CGACAAAA | 0.141 |
| CCTCCTGC | -0.136 |
| CGCATTAA | 0.0118 |
| AACCTTGG | -0.0868 |
| CCCTCACA | -0.0423 |
| ACCATCTC | -0.0136 |
| AGTGCGAT | 0.0401 |
| TCTGCCCA | -0.125 |
| GGTTTTGA | -0.11 |
| GGTTCAGA | -0.0786 |
| AGAGGACC | -0.211 |
| CTTTTGGA | -0.0505 |
| CCGATACC | 0.121 |
| TCCAGAGA | -0.24 |
| TCAATAAA | -0.164 |
| ATTATAAA | 0.0934 |
| CCTAGCGA | -0.248 |
| CGGTTAAA | 0.0999 |
| ACTGCATC | 0.041 |

| Sequence | PBM E-score |
| --- | --- |
| GAGGTTGA | -0.0607 |
| TTGAGCAA | -0.106 |
| GCAGAGAC | -0.176 |
| GAGTACGC | -0.0719 |
| CAGACCAC | -0.0692 |
| TACCGAGA | 0.0153 |
| AAGCCCCG | 0.146 |
| GACTCAGA | -0.168 |
| AATTTGAC | -0.0174 |
| ATCGCTCG | 0.137 |
| ACTACACT | -0.165 |
| ACGATAAC | -0.0365 |
| TTTATAAA | 0.264 |
| ACTGGAAC | 0.0779 |
| AGTCGATG | -0.0539 |
| AAGCCAGT | -0.399 |
| ATGAGGTG | -0.101 |
| TGGACACA | 0.0497 |
| GCAGGGTA | -0.178 |
| AATCCCTG | -0.0189 |
| AGCGTTGA | -0.159 |
| GACGGTGC | 0.0508 |
| GTGGCCAC | 0.208 |
| CGATGATC | 0.00549 |
| ATGTCACG | -0.054 |

| Sequence | PBM E-score |
| --- | --- |
| AGGGAGGC | -0.0862 |
| ACTCGCGG | 0.0678 |
| AAGACGAG | -0.144 |
| GAGGCAAA | 0.0299 |
| CGGATCCG | 0.489 |
| GGCCCTAA | -0.0464 |
| TATAGGGA | 0.033 |
| CAGAGTCA | -0.219 |
| TATTCCCA | 0.0626 |
| AGATGGTC | -0.0811 |
| GAGACTAA | -0.0463 |
| CGGGCAGC | 0.311 |
| CACCCGCG | 0.42 |
| AGCCGTTA | 0.0751 |
| GCGGGTCA | 0.149 |
| CTAGTCAG | -0.316 |
| CTTACAAG | -0.287 |
| AAATTTGA | 0.0772 |
| GCGATTCC | 0.34 |
| ACATACCT | -0.153 |
| GTACTGAC | 0.0573 |
| CGATCTTC | 0.0584 |
| AACTACGG | 0.148 |
| CCCCGTTA | -0.0425 |
| AACGCTCT | -0.296 |

| Sequence | PBM E-score |
| --- | --- |
| AGGAGGTC | -0.3 |
| CAGCCCAG | -0.0737 |
| GAGATTGC | 0.00891 |
| AGCGTAGC | -0.158 |
| AATAGCGG | 0.0347 |
| GAGTATTA | -0.139 |
| CCTTCGTC | -0.0279 |
| CTCCGCCC | 0.322 |
| GCAGAGTA | -0.09 |
| CAAACGGC | 0.0983 |
| ATTGAAGG | -0.167 |
| CCTGTGAC | -0.23 |
| AAGCTGAC | -0.0901 |
| CCGGCATC | 0.297 |
| AAATGCCG | 0.321 |
| CCGAACCA | 0.244 |
| TCGGAGCA | 0.28 |
| AGCCCGCA | 0.0472 |
| ACCTGAGA | -0.106 |
| CCCTCTAC | -0.26 |
| AATGATTC | 0.0328 |
| ACCGACCC | 0.148 |
